In PubChem BioAssay AID488969 (Vanderbilt High Throughput Screening Facility, 2010):
Whole data set: some 110,000 compounds, median “z-score” near -0.1, cut for the highest 2% near 2. Some of the results follow. Active and inactive are the calls of the source.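 Rule for the calls: active = z-score in the third read window above 3 or below -3; inactive = the rest.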

Target: Metabotropic glutamate receptor 8 (Rattus norvegicus) (UniProt P70579)
Experiment: rat mGluR8 modulators via GIRK flux, primary screen, cell-based, thallium flux, HTS (AID 488969)
Conditions: HEK293 rat mGluR8, GIRK (G protein-gated inwardly rectifying potassium channel) thallium flux, FluoZin2; at 10 µM; stronger effect = higher value; submaximal glutamate (EC20) added with thallium

UniProt P70579, sequence (P70579 whole entry, looked up): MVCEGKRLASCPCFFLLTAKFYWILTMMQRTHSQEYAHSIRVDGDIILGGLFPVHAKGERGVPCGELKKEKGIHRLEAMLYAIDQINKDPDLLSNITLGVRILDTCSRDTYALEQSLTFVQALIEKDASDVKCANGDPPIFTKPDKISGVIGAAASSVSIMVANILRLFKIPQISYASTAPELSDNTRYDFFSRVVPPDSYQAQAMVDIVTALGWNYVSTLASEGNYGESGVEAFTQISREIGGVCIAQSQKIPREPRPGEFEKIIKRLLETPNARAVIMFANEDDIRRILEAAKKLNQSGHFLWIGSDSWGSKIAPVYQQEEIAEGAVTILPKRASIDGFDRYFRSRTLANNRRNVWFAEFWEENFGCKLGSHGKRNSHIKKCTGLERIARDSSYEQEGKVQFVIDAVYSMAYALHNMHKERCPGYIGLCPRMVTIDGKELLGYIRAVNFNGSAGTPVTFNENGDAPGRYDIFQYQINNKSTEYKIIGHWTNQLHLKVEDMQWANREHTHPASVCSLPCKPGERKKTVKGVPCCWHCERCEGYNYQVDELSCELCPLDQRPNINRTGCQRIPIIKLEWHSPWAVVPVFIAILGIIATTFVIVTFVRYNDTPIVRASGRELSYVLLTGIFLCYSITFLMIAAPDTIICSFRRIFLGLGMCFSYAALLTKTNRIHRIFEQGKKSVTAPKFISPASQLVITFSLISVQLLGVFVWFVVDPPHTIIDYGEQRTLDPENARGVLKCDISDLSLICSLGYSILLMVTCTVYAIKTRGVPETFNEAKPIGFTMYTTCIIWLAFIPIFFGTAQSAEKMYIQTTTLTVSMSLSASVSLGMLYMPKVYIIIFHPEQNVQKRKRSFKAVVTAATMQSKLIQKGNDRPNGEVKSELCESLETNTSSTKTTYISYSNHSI

Row | Structure (SMILES) | z-score
1 | COc1ccc(N2CCN(c3nc(NCCc4ccc(OC)c(OC)c4)nc(OC)n3)CC2)cc1 | -0.506
2 | CCNC(=O)CC1C(=O)N(c2ccccc2)C(=O)N1CCC(C)C (centres undefined) | -0.12
3 | c1coc(-c2nc3c4c5c(sc4ncn3n2)CCCC5)c1 | -0.00263
4 | O=C(NCCc1ccccc1)c1ccccc1NS(=O)(=O)N1CCCC1 | 0.642
5 | CC(C)CN1CN(Cc2ccco2)CNC1=S | -0.639
6 | COc1ccccc1CNC(=O)C[n+]1ccccc1 | 0.448
7 | CCCn1c(SC(C(=O)Nc2cc(C)ccc2OC)c2ccccc2)nc2ccccc2c1=O (centres undefined) | active: 3.61
8 | Cn1nnnc1SCC(=O)Nc1ccc(Br)cc1Cl | 0.229
9 | COc1cccc(NC(=S)NCc2ccccn2)c1 | -0.104
10 | O=C(CC(c1ccco1)C1CCCCC1=O)c1ccco1 (centres undefined) | 0.987
11 | CC(C)NC(=O)c1ccc2c(=O)n(Cc3ccco3)c(=S)[nH]c2c1 | 0.167
12 | Clc1ccc2nc(N3CCCCC3)[nH]c2c1 | -0.459
13 | CCC(C)NC(=O)C1CCN(C(=O)N(C)C)CC1 (centres undefined) | 0.522
14 | CCN(CC)C(=O)CP(=O)(c1ccccc1)c1ccccc1 | -0.0476
15 | COc1ccccc1NC(=O)N1CCCC1C(=O)NCc1ccc(F)cc1 (centres undefined) | 1.1
16 | Cc1cc(NC(=O)CSc2nc(-c3ccco3)cc(C(F)(F)F)n2)no1 | -0.109
17 | Cc1ccc(S(=O)(=O)NCCNC(=O)N2CCOCC2)cc1 | 0.182
18 | Cc1c(NC(=O)c2ccc3c4c(cccc24)CC3)c(=O)n(-c2ccccc2)n1C | -0.0564
19 | CCOC(=O)c1ccc(NC(=O)CCC2COc3ccccc3O2)cc1 (centres undefined) | -0.191
20 | Cn1c(-c2ccccc2)cnc1NCc1cc2c(cc1[N+](=O)[O-])OCO2 | -1.22
21 | CCCCC(=O)NS(=O)(=O)c1ccc(NS(C)(=O)=O)cc1 | 0.0545
22 | Cn1c(C2=C(O)CN(c3ccc4c(c3)OCCO4)C2=N)nc2ccccc21 | -0.527

Row | Structure (SMILES) | z-score
23 | C/C(CC(=O)NC1C2CC3CC(C2)CC1C3)=N\NC(=O)Cc1cccs1 (centres undefined) | -0.142
24 | C=C(C)CN(CC)CCC(=O)Nc1ccc(OC)cc1OC | -0.5
25 | Cc1ccc(-c2cnn(-c3cccc(C(F)(F)F)c3)c2N)cc1 | -0.183
26 | COc1ccc(S(=O)(=O)N(c2onc(C)c2Cl)S(=O)(=O)c2ccc(OC)cc2)cc1 | -0.13
27 | Cc1ccc(-c2nnn(CC(=O)N3CCCc4ccccc43)n2)cc1 | 0.105
28 | CCOc1ccccc1C(=O)Nc1ccc2nc(N3CCN(c4ncccn4)CC3)cc(C)c2c1 | -0.112
29 | COc1ccc(/C=C/C(=O)c2cc(Br)ccc(=O)c2O)cc1 | active: 3.14
30 | Cn1ncc(N=Cc2c(O)ccc3ccccc23)c1C(=O)N1CCOCC1 | -0.205
31 | Cc1nnc(SC(C)C(=O)Nc2ccc(S(=O)(=O)NC3CCCCC3)cc2)s1 (centres undefined) | -0.213
32 | CC1Cc2ccccc2N1C(=O)CSc1nc2ccccc2o1 (centres undefined) | -1.12
33 | CC(C)CNC(=O)COC(=O)/C=C/c1ccccc1[N+](=O)[O-] | -0.0356
34 | CCOc1cc(/C=N\NC(=O)c2ccc(NC(=O)C(C)(C)C)cc2)ccc1OC(=O)c1cccc(C)c1 | -0.144
35 | COc1ccc(-c2nnc(SCC(=O)Nc3nc4ccccc4s3)n2C)cc1 | -0.454
36 | CC(=O)c1cccc(NC(=O)COc2ccc(S(=O)(=O)N3CCCCC3)cc2)c1 | -0.505
37 | S=c1[nH]nc(-c2ccco2)n1/N=C/c1ccc(Cl)cc1Cl | active: 6.87
38 | Cc1ccnc(NC(=O)c2cc(S(=O)(=O)N3CCCCC3)ccc2Cl)c1 | -0.103
39 | CCCc1cc(N2CCN(C(=O)c3ccco3)CC2)n2c(nc3ccccc32)c1C#N | -0.829
40 | CCOC(=O)Nc1ccc(C)cc1C | -0.166
41 | NC(=O)c1c(NC(=O)Cc2cccs2)sc2c1CCC2 | -0.944
42 | CC(Oc1ccc(F)cc1)C(=O)Nc1ccc2ccccc2c1 (centres undefined) | -0.37
43 | CC(C)OC(=O)c1c(NC(=O)c2cnn3c2NC(c2ccccc2)CC3C(F)(F)F)sc2c1CCCC2 (centres undefined) | -0.108
44 | CN1C(=O)SC(Nc2ccccc2)C1=O (centres undefined) | -0.00139

Row | Structure (SMILES) | z-score
45 | CCC(=O)Oc1ccc(-c2cnc3ccccc3n2)cc1 | -0.929
46 | O=C(Nc1ccccc1)c1ccccc1CC[N+](=O)[O-] | -0.0873
47 | Cc1cc(-c2c(C)n([O-])c(C)c(C)[n+]2=O)ccc1F | -0.1
48 | Cc1ccc(OCCCn2c(=O)sc3ccccc32)cc1 | -0.0299
49 | N#CC1=C(N)SC(N)=C(C#N)C1c1ccoc1 | -0.768
50 | CC12CCC(C(=O)N(NC(=O)c3ccccc3Cl)C1=O)C2(C)C (centres undefined) | 0.00342
51 | CCOC(=O)c1cn(CC)c2cc(Cl)c([N+](=O)[O-])cc2c1=O | -0.287
52 | CCN(CC)c1ccc(CNc2ccc(Br)cn2)cc1 | -0.0669
53 | COc1ccc(N2C(=O)C3C4c5ccccc5C(C=Nc5ccc(C)cc5C)(c5ccccc54)C3C2=O)cc1 (centres undefined) | -0.139
54 | O=C(CCS(=O)(=O)c1ccccc1)Nc1cccc(-c2nc3ccccc3s2)c1 | -0.366
55 | CCOc1ccc(-c2nnc3sc(COc4ccccc4)nn23)cc1 | 0.953
56 | CCc1nnc(NC(=O)CCN2C(=O)c3ccccc3S2(=O)=O)s1 | 0.0115
57 | CCOC(=O)c1cnc(-n2nc(C)cc2C)nc1NCCO | 0.000586
58 | COc1cc(OC)cc(C(=O)Nc2ccc(-c3nc4ccccc4o3)cc2)c1 | -0.273
59 | O=S(=O)(Nc1ccccn1)c1ccc(C2CCCCC2)cc1 | 0.0558
60 | CC(=O)Nc1ccc(S(=O)(=O)N2CCN(S(=O)(=O)N3CCCCCC3)CC2)cc1 | -0.27
61 | O=C(NCCc1c[nH]c2ccccc12)/C(=C\c1cccnc1)NC(=O)c1ccco1 | -0.07
62 | CCOC(=O)c1c(-c2ccccc2)oc2ccc(OC(C)=O)cc12 | -0.454
63 | CSC(=NC#N)N1CCN(c2ccccc2)CC1 | -0.78
64 | O=C(NCCc1ccccc1)c1cccc([N+](=O)[O-])c1 | -0.2
65 | CCC(=O)Nc1nnc(CSCc2ccc(F)cc2)s1 | 0.0266
66 | COc1cccc(-c2nnc(SCCOc3ccc4c(C)cc(=O)oc4c3)o2)c1 | 0.0574

Row | Structure (SMILES) | z-score
67 | NC(=O)CNC(=O)[C@@H]1CC2(CC(c3ccccc3)=NO2)CN1C(=O)c1ccc(Br)cc1 (some centres undefined) | -0.124
68 | Cc1ccc(NC(=O)C2CC(=O)NC(N3CCCCC3)=N2)cc1Cl (centres undefined) | -0.889
69 | COc1ccc(CN(C(=O)CSc2nnc(-c3ccccc3C)o2)c2ccc(F)cc2)cc1 | -0.159
70 | Cn1c(Cn2cnc3ccccc32)nc2ccccc21 | 0.0047
71 | CCOC(=O)c1cc(-c2ccccc2)sc1NC(=O)C(C)Sc1nnc(N)s1 (centres undefined) | -0.246
72 | Cc1nn(C)c(=O)n1-c1ccc(OCc2ccccc2)cc1 | -0.0419
73 | O=C(NCCc1ccccc1)/C(=C\c1ccc([N+](=O)[O-])cc1)NC(=O)c1ccccc1 | -0.177
74 | O=C(NCCCn1ccnc1)c1cc2c(s1)CCCCC2 | -0.182
75 | O=C(N/N=C/c1cccc(Br)c1)c1ccc(Cn2cc(Br)cn2)o1 | -0.645
76 | Cc1cc(OCC(C)C)ccc1/C(O)=C1/C(=O)C(=O)N(Cc2cccnc2)C1c1ccncc1 (centres undefined) | -0.0254
77 | c1ccc(CCc2nc(-c3ccccc3)no2)cc1 | 0.0313
78 | COc1ccc(C)cc1S(=O)(=O)N1CCC(C(=O)NCCc2ccccc2)CC1 | -0.227
79 | NC1=NC(=O)C(Cc2cccc(Cl)c2)S1 (centres undefined) | -0.248
80 | COc1ccccc1-c1cc(C(F)(F)F)nc(NCc2ccco2)n1 | 0.206
81 | CSC1=C(C#N)C(c2ccc3c(c2)OCO3)C2=C(CCCC2=O)N1 (centres undefined) | 0.613
82 | O=C(CSC1=Nc2ccccc2C2=NC(c3ccccc3)C(=O)N12)NCC1CCCO1 (centres undefined) | 2.65
83 | CCn1c(SCC(=O)N=Nc2c(O)[nH]c3ccccc23)nc2ccccc21 | -1.72
84 | COc1cccc(N2CCN(c3c(C#N)c(C(F)(F)F)nn3C)CC2)c1 | -0.192
85 | COc1ccc(S(=O)(=O)Oc2ccc3c(c2)O/C(=C\c2cccnc2)C3=O)cc1 | 0.09
86 | COn1c(SCc2ccccc2)nc2ccccc2c1=O | -0.878
87 | c1ccc(C2CCC(N3CCC(N4CCCCC4)CC3)CC2)cc1 (centres undefined) | -0.423
88 | CCC(=O)Nc1ccc(N2CCCCC2)c(C(=O)Nc2ccccc2C)c1 | -0.234

Row | Structure (SMILES) | z-score
89 | COC(=O)C1C(=O)C=C(Nc2ccc(F)cc2)CC1c1ccc(OC)cc1 (centres undefined) | -0.267
90 | COc1ccc(N(C(=O)Cc2cccs2)C(C(=O)NC2CCCCC2)c2cccn2C)cc1OC (centres undefined) | -1.31
91 | CC(C)(C)NC(=S)NNC(=O)c1ccccc1Cl | -0.0422
92 | Cc1nn(C)c(C(=O)NNC(=S)Nc2ccc(Cl)cc2)c1[N+](=O)[O-] | -0.115
93 | Cc1c(Br)c([N+](=O)[O-])nn1C(C)C(=O)NCc1cccnc1 (centres undefined) | -0.245
94 | Cc1ccc(OCCSc2ncnc3sc(C)c(C)c23)cc1C | 1.3
95 | CC1CCc2cc(F)cc3c(O)c(C(=O)NCC4CCCO4)c(=O)n1c23 (centres undefined) | -0.274
96 | CCOC(=O)C(C)Sc1nc(N)c(NC(=O)c2ccc(OC)c(OC)c2)c(=O)[nH]1 (centres undefined) | 0.0479
97 | COc1ccc(CN(C(=O)c2cc3ccccc3oc2=O)C2CCCC2)cc1 | -0.77
98 | CC(=O)Nc1ccccc1NC(=O)C(F)(F)F | -0.257
99 | Cc1ccccc1NC(=O)CN1C(=O)S/C(=C\c2cccn2-c2cccc(C(=O)O)c2)C1=O | -0.405
100 | O=C(COC(=O)CN1C(=O)c2ccccc2C1=O)Nc1ccc(S(=O)(=O)N2CCCC2)cc1 | -0.521
101 | O=C(O)COc1ccc(Cl)cc1CO | -0.51
102 | C#CCOC(=O)/C(=C/c1ccc(F)cc1)NC(C)=O | 0.0399
103 | COCCN1C(=O)C(=O)/C(=C(/O)c2ccc(S(=O)(=O)N3CCOCC3)cc2)C1c1ccc(C(C)C)cc1 (centres undefined) | 0.0253
104 | CCCCc1nc(NCCNC(=O)c2ccco2)c(C#N)c2c1CSC(C)(C)C2 | -2.11
105 | COc1ccc2c(CC(=O)Nc3cccc(S(=O)(=O)N4CCOCC4)c3)coc2c1 | -0.307
106 | Cc1nn(C(=O)c2cccnc2)c(C)c1Sc1ccc(Br)cc1 | -0.14
107 | COc1ccc(-c2[nH]c(-c3ccc(F)cc3)nc2SCC(=O)NCc2ccco2)cc1OC | 1.01
108 | COc1cc(NC(=O)COC(=O)c2ccccc2F)cc(OC)c1 | 0.624
109 | COc1ccc(C)cc1NC(=O)CN1CCN(S(=O)(=O)c2ccc(Cl)cc2)CC1 | 0.0174
